The test system of assay [1] is RAW-Dual. In words: NF-kB SEAP reporter activity, fold change vs agonist alone; higher = enhanced NF-kB activity. Conditions: library stock concentration (final ~1000-fold dilution): 10 mM. The method in brief:
(§1)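 Library stock was pin-tooled at 50 nL into 384-well plates of RAW-Dual macrophages (50,000 cells/well, DMEM), followed 1 h later by a PRR agonist, and the cells were kept at 37 °C, 5% CO2. Supernatant collected after 20 hours was read for IRF by QuantiLuc luminescence and for NF-κB by QuantiBlue absorbance at 620 nm. Reporter activity is fold change over agonist-alone wells, and a well counted as cytotoxic when its IncuCyte confluency was below 70% of agonist controls in both mask sets.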

For assay [2], the system named is RAW-Dual. As to the kind of experiment: NF-kB SEAP reporter activity, fold change vs agonist alone; cytotoxicity flag (confluency mask): not cytotoxic; higher = enhanced NF-kB activity. The method in brief:
as §1

Assay [3] has as its system RAW-Dual. In words: NF-kB SEAP reporter activity, fold change vs agonist alone; cytotoxicity flag (confluency mask): cytotoxic (confluency <70% of control); higher = enhanced NF-kB activity. The method, boiled down:
as §1

Where [4] appears, read: cytotoxicity flag (confluency mask): not cytotoxic, agonist: Imiquimod (TLR7) […].
Setting [5] is: cytotoxicity flag (confluency mask): not cytotoxic, agonist: MPLA (TLR4) […].
Where [6] appears, read: agonist: ODN 1826 (TLR9) 0.5 ug/mL.
Where [7] appears, read: agonist: Pam2CSK4 (TLR2/6) 0.1 ug/mL.
The mark [8] stands for this setting: agonist: Pam3CSK4 (TLR2/1) 0.1 ug/mL.
Where [9] appears, read: cytotoxicity flag (confluency mask): cytotoxic (confluency <70% of control), agonist: Imiquimod (TLR7) […].
Where [10] appears, read: cytotoxicity flag (confluency mask): cytotoxic (confluency <70% of control), agonist: MPLA (TLR4) […].

Whole data set: some 2,900 compounds, median “NF-kB SEAP reporter activity, fold change vs agonist alone” near 0.99, cut for the highest 2% near 2.6. The list shows a part of the results.

For `CCCc1nc2c(C)cc(-c3nc4ccccc4n3C)cc2n1Cc1ccc(-c2ccccc2C(=O)O)cc1`, the “NF-kB SEAP reporter activity” value in assay [1] (setting [4]) was 1; in assay [1] (setting [5]), 0.78.
For the molecule `CCc1c2c(nc3ccc(OC(=O)N4CCC(N5CCCCC5)CC4)cc13)-c1cc3c(c(=O)n1C2)COC(=O)C3(O)CC.Cl.O.O.O` (configuration not stated) (library stock concentration (final ~1000-fold dilution): 10 mM), the “NF-kB SEAP reporter activity” value was 1.02 in assay [2] (agonist: LPS (TLR4) 0.1 ug/mL), 0.787 in assay [2] (setting [6]), 1.03 in assay [2] (setting [7]) and 1.18 in assay [2] (setting [8]).
For the molecule `CCc1c2c(nc3ccc(OC(=O)N4CCC(N5CCCCC5)CC4)cc13)-c1cc3c(c(=O)n1C2)COC(=O)C3(O)CC.Cl.O.O.O` (configuration not stated), the “NF-kB SEAP reporter activity” value in assay [1] (setting [4]) and in assay [1] (setting [5]) was 1.02 in each case.
Take `O=c1cc(N2CCOCC2)oc2c(-c3ccc4c(c3)OCCO4)csc12` (library stock concentration (final ~1000-fold dilution): 10 mM): the “NF-kB SEAP reporter activity” value came out at 6.86 in assay [2] (agonist: LPS (TLR4) 0.1 ug/mL), 2.26 in assay [2] (setting [6]), 0.957 in assay [2] (setting [7]) and 2.84 in assay [2] (setting [8]).
In the case of `O=c1cc(N2CCOCC2)oc2c(-c3ccc4c(c3)OCCO4)csc12`, the “NF-kB SEAP reporter activity” value in assay [1] (setting [4]) amounted to 1.57; in assay [1] (setting [5]), 2.36.
Consider `COC(=O)C1C(O)CCC2CN3CCc4c([nH]c5ccccc45)C3CC21.Cl` (configuration not stated) (library stock concentration (final ~1000-fold dilution): 10 mM), for which the “NF-kB SEAP reporter activity” value in assay [2] (agonist: LPS (TLR4) 0.1 ug/mL) was determined as 0.84; in assay [2] (setting [6]), 0.615; in assay [2] (setting [7]) it was 0.997; in assay [2] (setting [8]), 1.01.
As for `COC(=O)C1C(O)CCC2CN3CCc4c([nH]c5ccccc45)C3CC21.Cl` (configuration not stated), in assay [1] (setting [5]), the “NF-kB SEAP reporter activity” value was 0.915.
Consider `Nc1ncnc2c1c(I)cn2C1OC(CO)C(O)C1O` (configuration not stated), for which the “NF-kB SEAP reporter activity” value in assay [1] (setting [9]) is 0.145; in assay [1] (setting [10]), 0.26.
Turning to `Nc1ncnc2c1c(I)cn2C1OC(CO)C(O)C1O` (configuration not stated) (library stock concentration (final ~1000-fold dilution): 10 mM), the “NF-kB SEAP reporter activity” value in assay [3] (agonist: LPS (TLR4) 0.1 ug/mL) came to 0.213; in assay [3] (setting [6]), 0.195; in assay [3] (setting [7]) it was 0.0844; in assay [3] (setting [8]), 0.123.
Consider `CC(C)CC(=O)Nc1cncc(-c2ccc3[nH]nc(-c4nc5cncc(-c6cccc(F)c6)c5[nH]4)c3c2)c1`, for which the “NF-kB SEAP reporter activity” value is 0.791 in assay [1] (setting [9]) and 1.48 in assay [1] (setting [10]).
In the case of `CC(C)CC(=O)Nc1cncc(-c2ccc3[nH]nc(-c4nc5cncc(-c6cccc(F)c6)c5[nH]4)c3c2)c1` (library stock concentration (final ~1000-fold dilution): 10 mM), the “NF-kB SEAP reporter activity” value came to 0.623 in assay [3] (agonist: LPS (TLR4) 0.1 ug/mL), 0.492 in assay [3] (setting [6]), 0.243 in assay [3] (setting [7]) and 0.316 in assay [3] (setting [8]).
With `CC(=O)Oc1cc(C)c(OC(C)=O)c2ccccc12` (library stock concentration (final ~1000-fold dilution): 10 mM), the “NF-kB SEAP reporter activity” value in assay [3] (agonist: LPS (TLR4) 0.1 ug/mL) turned out to be 0.208; in assay [3] (setting [6]), 0.151; in assay [3] (setting [7]) it was 0.493; in assay [3] (setting [8]), 0.349.
In the case of `CC(=O)Oc1cc(C)c(OC(C)=O)c2ccccc12`, the “NF-kB SEAP reporter activity” value in assay [1] (setting [10]) is 0.207.
In the case of `COc1cc2ncnc(Nc3ccc(F)c(Cl)c3)c2cc1NC(=O)/C=C/CN1CCCCC1`, the “NF-kB SEAP reporter activity” value came out at 2.28 in assay [1] (setting [9]) and 1.52 in assay [1] (setting [10]).
In the case of `COc1cc2ncnc(Nc3ccc(F)c(Cl)c3)c2cc1NC(=O)/C=C/CN1CCCCC1` (library stock concentration (final ~1000-fold dilution): 10 mM), the “NF-kB SEAP reporter activity” value in assay [3] (agonist: LPS (TLR4) 0.1 ug/mL) turned out to be 0.266; in assay [3] (setting [6]), 0.26; in assay [3] (setting [7]) it was 0.179; in assay [3] (setting [8]), 0.384.
As for `CC(C)CCn1c(CN2CCN(C(=O)C3CC3)CC2)nc2c1c(=O)n(C)c(=O)n2C`, the “NF-kB SEAP reporter activity” value in assay [1] (setting [4]) is 0.935; in assay [1] (setting [5]) it was 0.995.
With `CC(C)CCn1c(CN2CCN(C(=O)C3CC3)CC2)nc2c1c(=O)n(C)c(=O)n2C` (library stock concentration (final ~1000-fold dilution): 10 mM), the “NF-kB SEAP reporter activity” value in assay [2] (agonist: LPS (TLR4) 0.1 ug/mL) stood at 0.909; in assay [2] (setting [6]) it was 0.963; in assay [2] (setting [7]), 0.957; in assay [2] (setting [8]), 1.13.
In the same order, the values of `O=C(O)CCC1CCC(c2cc(F)ccc2F)(S(=O)(=O)c2ccc(Cl)cc2)CC1` (configuration not stated) (library stock concentration (final ~1000-fold dilution): 10 mM) are 1.2, 1.14, 1.17 and 1.05.
Consider `O=C(O)CCC1CCC(c2cc(F)ccc2F)(S(=O)(=O)c2ccc(Cl)cc2)CC1` (configuration not stated), for which the results for the “NF-kB SEAP reporter activity” value in assay [1] (setting [4]) and in assay [1] (setting [5]) were 0.954 and 1.13, respectively.
Take `NS(=O)(=O)C#Cc1ccccc1`: the “NF-kB SEAP reporter activity” value in assay [1] (setting [4]) was determined as 1.65; in assay [1] (setting [5]) it was 0.392.
On to `NS(=O)(=O)C#Cc1ccccc1` (library stock concentration (final ~1000-fold dilution): 10 mM), for which the “NF-kB SEAP reporter activity” value stood at 0.198 in assay [2] (agonist: LPS (TLR4) 0.1 ug/mL), 0.437 in assay [2] (setting [6]), 0.143 in assay [2] (setting [7]) and 0.28 in assay [2] (setting [8]).
For the molecule `C=CC(=O)Nc1cccc(Oc2nc(Nc3ccc(N4CCN(C)CC4)c(F)c3)nc3[nH]ccc23)c1` (library stock concentration (final ~1000-fold dilution): 10 mM), the “NF-kB SEAP reporter activity” value in assay [3] (agonist: LPS (TLR4) 0.1 ug/mL) was 0.479; in assay [3] (setting [6]), 0.174; in assay [3] (setting [7]), 0.112; in assay [3] (setting [8]) it was 0.13.
`C=CC(=O)Nc1cccc(Oc2nc(Nc3ccc(N4CCN(C)CC4)c(F)c3)nc3[nH]ccc23)c1`: the figures for the “NF-kB SEAP reporter activity” value in assay [1] (setting [9]) and in assay [1] (setting [10]) were 0.14 and 0.276, respectively.
As to `NC1CCCN(c2c(/C=C3\SC(=O)NC3=O)cccc2-c2ccccc2)C1` (configuration not stated), the “NF-kB SEAP reporter activity” value in assay [1] (setting [4]) was found to be 1.83; in assay [1] (setting [5]), 1.45.
For the molecule `NC1CCCN(c2c(/C=C3\SC(=O)NC3=O)cccc2-c2ccccc2)C1` (configuration not stated) (library stock concentration (final ~1000-fold dilution): 10 mM), the “NF-kB SEAP reporter activity” value was 1.13 in assay [2] (agonist: LPS (TLR4) 0.1 ug/mL), 1.23 in assay [2] (setting [6]), 0.982 in assay [2] (setting [7]) and 1.63 in assay [2] (setting [8]).
